Hit rate of the full screen: of about 94,000 compounds, about 6,200 (6.6%) were called active. Inconclusive results, whose numbers are uncertain, are shown with a selection of clear calls. Calls come from the whole dose curve; as a rule, active = well fitted inhibition curve with a large enough effect; inconclusive = small, poorly fitted or top-dose-only effect; inactive = flat fitted curve, though single readings scatter. Potencies beside an inconclusive call are fits to weak or partial responses and may not hold up.
Assay: Cytotoxic Profiling in HEK 293 Cell Line of Diverse Libraries Using Quantitative High-Throughput Screening; note: nearly all actives have a fitted effect of over 60% in size
Details: HEK 293 viability, ATP luminescence (CellTiter-Glo), 48-72 h; series mostly up to 115 µM
Procedure, shortened: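 CellTiter-Glo luminescence (cellular ATP) was read after 48 or 72 hr of compound exposure at 37 degree Celsius. Cells were HEK 293 plated at 250 cells/well.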
Potency is the fitted concentration of half-maximal effect; tags give direction and shape of the fitted curve.

Structure (SMILES)	Potency
COc1ccc(C(=O)N[C@@H]2CN(Cc3ccccc3)C[C@H]2CN(C)C)cn1	inconclusive: 28.2 µM [inhibitor, full curve, poor fit]
CN1CC(=O)N(c2ccccc2F)Cc2c(NCC3CC3)ncnc21	inactive
O=C(c1nnc(CNCCN2CCCC2)n1-c1ccccc1)N1CCC[C@@H]1C(c1ccccc1)c1ccccc1	inconclusive: 56.2 µM [inhibitor, partial curve, poor fit]
Cc1cc(Cl)cc(Cl)c1CNCC1(O)CCCNC1 (stereo not given)	inconclusive: 56.2 µM [inhibitor, partial curve, poor fit]
CCN1C(=O)CCC2(C(=O)NC3CCCC3)CCCC=C12 (stereo not given)	inactive
CC(C)CCNC(=O)c1c(OCC2CC2)cc(=O)n2c1CCCCC2	inconclusive: 89.1 µM [inhibitor, single point]
Cc1nn2c(c1-c1ccnn1C(C)C)N(C(=O)c1ccc(Oc3ccccc3)cc1)CCC2	inconclusive: 79.4 µM [inhibitor, single point]
O=c1[nH]c(N2CCOCC2)nc2c1CCN(Cc1cccc(C(F)(F)F)c1)CC2	inactive
Cc1ncc(CC(=O)NCc2ccc3[nH]c(-c4ccccc4F)c(C)c3c2)c(=O)[nH]1	inconclusive: 17.8 µM [inhibitor, full curve, poor fit]
O=C(NC[C@@H]1CCCN1)C1CCN(c2nc(-c3ccccc3)nc3c2CCC3)CC1	active: 31.6 µM
COc1ccc(CCNC(=O)C2CCCN(Cc3cccc(-c4ccc(F)cc4F)c3)C2)cc1 (stereo not given)	active: 10 µM
CCN1C(=O)C2CC3(CCN(Cc4cccn4C)CC3)CN2C1=O (stereo not given)	inactive
Cn1ncc2c(C(=O)NCc3ccc(Cl)cc3)cc(-c3ccsc3)nc21	active: 35.5 µM
CCCc1noc(-c2cn(C3CCN(C(=O)c4cccc(F)c4)CC3)nn2)n1	inactive
Cc1ccccc1Nc1cc2c(nc1-c1ccccc1)nc(C(=O)NCCN(C)C)n2C	active: 39.8 µM
CC1=NS(=O)(=O)N(Cc2ccccc2)C=C1C(=O)OCc1noc(-c2cccc(C)c2)n1	inconclusive: 20 µM [inhibitor, full curve]
O=C(c1ccccc1Cl)N1CCC(C(=O)N2CCC(c3nc4ncccc4[nH]3)CC2)CC1	inactive
CNC(=O)c1cc(C)nc2onc(C3CCN(C(=O)c4ccc(OC)cc4)CC3)c12	inactive
COc1ccc(CNC(=O)Nc2cccc(-c3ccc(N4CCCCC4)nn3)c2)cc1	inconclusive: 39.8 µM [inhibitor, full curve, poor fit]
COc1ccc(CCC(=O)N2CCCCCNC(=O)[C@@H]3CCC[C@@H]32)cc1	inconclusive: 39.8 µM [inhibitor, full curve, poor fit]
O=C1CO[C@H]2CCN(Cc3cccc(OC(F)(F)F)c3)CC[C@@H]2N1Cc1c[nH]c2ccccc12	inconclusive: 50.1 µM [inhibitor, partial curve, poor fit]
CCc1cccc(NC(=O)c2ccc3c(c2)N(C)C2CCCN2C3=O)c1 (stereo not given)	inconclusive: 50.1 µM [inhibitor, partial curve, poor fit]

Structure (SMILES)	Potency
COc1ccc([C@H](C)NC(=O)c2c(C)noc2-c2cc(OC)c(OC)c(OC)c2)cc1	inconclusive: 56.2 µM [inhibitor, partial curve, poor fit]
O=C(NCc1cccnc1)c1cc(-c2ccc(F)cc2)c2nncn2n1	inactive
COc1ccc(-c2cc(N3CCC(NC(=O)c4cccc(C#N)c4)C3)n[nH]2)cc1 (stereo not given)	active: 35.5 µM
CC(=O)NC1(C)CN(Cc2ccc(-c3ccc4c(ccn4C)c3)s2)C1	inconclusive: 63.1 µM [inhibitor, full curve, poor fit]
FC(F)(F)Oc1cccc(CNC[C@H]2Cn3ccnc3CO2)c1	inconclusive: 63.1 µM [inhibitor, partial curve, poor fit]
C#CCN(C)C(=O)[C@@H]1CCCN1[C@@H](C(=O)NC)c1ccc(OC)cc1	inactive
COc1ccc2[nH]c3c(c2c1)CCN(C)C31CCN(C(=O)Cc2cccnc2)CC1	inactive
COc1cccc(CN2CCCC(Cc3ncc(C)n3Cc3ccccc3)C2)c1OC (stereo not given)	active: 50.1 µM
COc1ccc(C(=O)N2CCCC(c3nc(-c4cnccn4)no3)CCNC(=O)CC2)c(OC)n1 (stereo not given)	inactive
Cc1noc2c(NC3CCN(C)CC3)cc(-c3ccc(Cl)cc3)nc12	active: 35.5 µM
COc1ccc(CN2CCc3nc(C(=O)NCc4ccncc4)oc3CC2)cc1OC	inconclusive: 50.1 µM [inhibitor, partial curve, poor fit]
CN(C(=O)c1cc(-c2ccc(C(F)(F)F)cc2)nc2c1cnn2C)c1ccccc1	inconclusive: 79.4 µM [inhibitor, partial curve, poor fit]
CC(C)CCCC1CN(C(=O)c2cn(C3CCC(N)CC3)nn2)CCO1 (stereo not given)	inconclusive: 56.2 µM [inhibitor, partial curve, poor fit]
COc1ccccc1-c1ccc(CN2CCC(N[S+](=O)([O-])c3ccc(C)cc3)C2)cc1 (stereo not given)	inconclusive: 44.7 µM [inhibitor, partial curve, poor fit]
Cc1cc(Cl)ccc1OCC(=O)N1CCC2(CCCNC2=O)C1 (stereo not given)	inactive
O=C(c1ccc2nc[nH]c2c1)N1CCCN(c2cc(-c3ccc(Cl)cc3)[nH]n2)CC1	inactive
O=C(COc1ccc(Cl)cc1)N1C[C@@H](CO)[C@H](c2ccncc2)C1	inactive
COc1ccc(-c2noc(CC3CCN(C(=O)c4ccc(C)nc4)CC3)n2)cc1	inconclusive: 39.8 µM [inhibitor, partial curve, poor fit]
CC(Oc1ccccc1)C(=O)NC1CCN(c2cc(C(F)(F)F)ncn2)CC1 (stereo not given)	inconclusive: 39.8 µM [inhibitor, partial curve, poor fit]
N#Cc1ccc(C(=O)NC2CCN(c3cc(-c4cccs4)[nH]n3)C2)cc1 (stereo not given)	inconclusive: 50.1 µM [inhibitor, partial curve, poor fit]
Fc1ccc(CCNc2nccc(-c3cccnc3)n2)cc1	inconclusive: 50.1 µM [inhibitor, partial curve, poor fit]
CCOc1ccccc1C(=O)NCc1nnc2cc(-c3nc(C(C)C)no3)ccn12	inconclusive: 56.2 µM [inhibitor, partial curve, poor fit]

Structure (SMILES)	Potency
COc1cccc(Nc2ccc3nnc(-c4cc(OC)ccn4)n3n2)c1	inconclusive: 44.7 µM [inhibitor, full curve, poor fit]
O=C(NCc1cc(F)cc(F)c1)c1ccc(N2CC3CC(C2)[C@H]2CCCC(=O)N2C3)nc1 (stereo not given in full)	inactive
Cc1nn(C)cc1CN1CC2(CCN(C(=O)C3CC3)CC2)CC1C(=O)O (stereo not given)	inactive
O=C1Nc2ccccc2C2(CCN(S(=O)(=O)c3cccc(C(F)(F)F)c3)C2)O1 (stereo not given)	inconclusive: 79.4 µM [inhibitor, partial curve, poor fit]
O=C(COc1ccc(F)cc1)N1CCOc2ccc(N3CCOCC3)cc2C1	inconclusive: 56.2 µM [inhibitor, partial curve, poor fit]
COc1cccc([S+](=O)([O-])N2CCc3nc(C4CC4)nc(-c4ccc(Cl)cc4)c3C2)c1	inconclusive: 44.7 µM [inhibitor, partial curve]
Cc1cccc(OCC(=O)N2CCN(c3cc(C(F)(F)F)nc(C)n3)CC2)c1	inconclusive: 79.4 µM [inhibitor, single point]
O=C(N1CCC(n2cc(-c3nc(-c4ccccc4)no3)nn2)C1)C1(c2ccccc2)CC1 (stereo not given)	inconclusive: 50.1 µM [inhibitor, partial curve, poor fit]
CCn1cc(S(=O)(=O)N2C[C@@H](CO)[C@H](C(=O)N(C)C)C2)cn1	inactive
COc1ccc(-c2noc(Nc3ccc4c(c3)OCCO4)n2)cc1	inactive
Cc1ccc(Cl)cc1NC(=O)N1CCC(n2cnnc2C2CC2)C1 (stereo not given)	inconclusive: 89.1 µM [inhibitor, single point]
CS(=O)(=O)NCC(=O)N1CCCCCNC(=O)CC1c1ccccc1 (stereo not given)	inconclusive: 89.1 µM [inhibitor, partial curve, poor fit]
N#Cc1ccc(C(=O)N2CCC(Cc3nc(-c4ccncc4)n[nH]3)C2)cc1 (stereo not given)	inactive
N#CC1CCN(C(=O)C2CCCCN2Cc2ccc(-c3ccsc3)cc2)CC1 (stereo not given)	inconclusive: 79.4 µM [inhibitor, partial curve]
CCc1nc2c(c(-c3ccc(Cl)cc3)n1)CN(C(=O)c1ccc(C)cc1)CC2	inconclusive: 56.2 µM [inhibitor, partial curve, poor fit]
CN(C)Cc1cc(C[C@@H]2C[C@H](NS(=O)(=O)c3ccc(F)cc3)C2(C)C)no1	inconclusive: 89.1 µM [inhibitor, partial curve, poor fit]
O=C(c1ccco1)N1CCC2(CC1)CC(N1CCN(c3ccccn3)CC1)CCO2 (stereo not given)	inactive
O=C(Nc1ccc(F)cc1)c1ccc2nc(-c3cccnc3Cl)oc2c1	inconclusive: 79.4 µM [inhibitor, partial curve, poor fit]
COc1cccc(-c2c(C(=O)NCc3cccc(Cl)c3)nc3sccn23)c1	inconclusive: 89.1 µM [inhibitor, single point]
O=C(C1CCCN1C(=O)c1cccc(-c2cccnc2)c1)N1CCN(Cc2ccccc2)CC1 (stereo not given)	inconclusive: 89.1 µM [inhibitor, single point]
CC(=O)N1CC2(Cc3ccccc31)CN(C(=O)c1ccccc1Cl)C2	inactive

From PubChem BioAssay AID1345083 (National Center for Advancing Translational Sciences (NCATS), 2018)
